Measured values: PubChem BioAssay AID686979 (National Center for Advancing Translational Sciences (NCATS), 2013)
Values joined by “and” are separate entries in the source; they are usually repeats but may differ in a detail not shown here. Equal entries are not always repeated. In all, about 420,000 compounds went through this assay and about 50,000 (12%) were called active. Inconclusive results, whose numbers are uncertain, are shown with a selection of clear calls. The call rests on the fitted dose curve; in most records, active means well fitted inhibition curve with a large enough effect; inconclusive means small, poorly fitted or top-dose-only effect; inactive means flat fitted curve, though single readings scatter. Potencies beside an inconclusive call are fits to weak or partial responses and may not hold up.

Experiment: qHTS for Inhibitors of human tyrosyl-DNA phosphodiesterase 1 (TDP1): qHTS in cells in presence of CPT; further: nearly all actives have a fitted effect of over 55% in size
Conditions: chicken DT40 Tdp1-/-;hTDP1 cells + 20 nM CPT, ATP luminescence, 48 h; activity change, negative = growth inhibition: at 46.2 µM (top of the series) unless noted
Outline: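 Chicken DT40 Tdp1-/- cells complemented with human TDP1, 400 cells/well, exposed to compounds plus 20 nM camptothecin for at least 48 h at 37 C; viability read as ATP content by CellTiter-Glo luminescence.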
On the % scale 0 is the no-effect control and ±100 the full control effect; potency means the concentration at half of the fitted maximal effect; tags describe the fitted curve by direction and shape.

Question: For `COc1ccc(C)cc1NC(=O)N1CCCn2nc(C)cc21`, which Potency is on record?
Answer: inconclusive: 25.9 µM [inhibitor, single point]

Question: With `O=C(C1CCC1)N1CCc2cc(S(=O)(=O)NCc3ccc(F)cc3)ccc21` as the molecule, how does the Potency read?
Answer: inconclusive: 23.1 µM [inhibitor, single point]

Question: With `CC(=O)c1ccc(/C=C/c2nc3ccccc3n2C)o1` as the molecule, how does the Potency read?
Answer: inconclusive: 29.1 µM [inhibitor, single point]

Question: With `COc1cc2c(cc1NC(=O)COC(=O)/C=C/c1ccccc1)oc1ccccc12` as the molecule, how does the Potency read?
Answer: active: 20.6 µM

Question: With `COC(=O)c1ccc(-c2nc3ccccc3[nH]2)cc1` as the molecule, how does the Potency read?
Answer: inconclusive: 25.9 µM [inhibitor, single point]

Question: For `C=CCN1C(=O)C(O)(CC(=O)c2ccccc2)c2ccccc21` (configuration not stated), which Potency is on record?
Answer: inconclusive: 29.1 µM [inhibitor, single point]

Question: With `COc1cc(C2CC(=O)Oc3c2c(=O)n(C)c2ccccc32)cc(OC)c1OC` (configuration not stated) as the molecule, how does the Potency read?
Answer: inconclusive: 29.1 µM [inhibitor, single point]

Question: Which Potency does the source give for `COC(=O)c1cc(C)[nH]c2c(C)cc3nc4ccccc4c3c12` here?
Answer: inconclusive: 25.9 µM [inhibitor, single point]

Question: For `CC(C)[C@H](NC(=O)OCc1ccccc1)C(=O)OCc1cc(=O)oc2cc(O)ccc12`, which Potency is on record?
Answer: inconclusive: 29.1 µM [inhibitor, single point]

Question: Which “activity change, negative = growth inhibition” value does the source give for `Cc1coc2c(C)c3oc(=O)c(CCC(=O)N(C)CC(=O)O)c(C)c3cc12` here?
Answer: inactive: 5.94%

Question: Which “activity change, negative = growth inhibition” value does the source give for `Cc1cc(C)nc(-n2ncc3c2CC(c2ccccc2)CC3=O)n1` (configuration not stated) here?
Answer: inactive: -15.7%

Question: With `CSc1cccc(CN2CCC(Oc3ccc(C(=O)N4CCCCC4)cc3)CC2)c1` as the molecule, how does the Potency read?
Answer: inconclusive: 25.9 µM [inhibitor, single point]

Question: For `COc1ccc(S(=O)(=O)N2CCCC(C(=O)NCc3ccco3)C2)cc1Cl` (configuration not stated), which Potency is on record?
Answer: inconclusive: 29.1 µM [inhibitor, single point]

Question: Which Potency does the source give for `CCCN(Cc1cc2cc(OC)ccc2[nH]c1=O)C(=O)c1ccncc1` here?
Answer: inconclusive: 29.1 µM [inhibitor, single point]

Question: For `COC(=O)c1ccccc1NC(=O)N1CCc2c(sc3c2CCCC3)C1c1ccc(F)cc1` (configuration not stated), which “activity change, negative = growth inhibition” value is on record?
Answer: inactive: -27.4%

Question: For `Cn1cccc1C(=O)NC(=O)COC(=O)c1cc(Cl)ccc1[N+](=O)[O-]`, which “activity change, negative = growth inhibition” value is on record?
Answer: inactive: 6.82%

Question: For `O=C(Nc1nc2ccc(Cl)cc2s1)c1cccc(N2C(=O)CCC2=O)c1`, which “activity change, negative = growth inhibition” value is on record?
Answer: inactive: -3.51%

Question: Which Potency does the source give for `Cc1[nH]c2ccc(C(=O)N3CCN(c4ccc(F)cc4)CC3)cc2c1C` here?
Answer: inconclusive: 29.1 µM [inhibitor, single point]

Question: With `COc1cccc(/C=N/n2c(N)c(S(=O)(=O)c3cccs3)c3nc4ccccc4nc32)c1` as the molecule, how does the “activity change, negative = growth inhibition” value read?
Answer: inactive: -24%

Question: With `Cc1cc(C)c(C)c(S(=O)(=O)NCCCN2CCOCC2)c1C` as the molecule, how does the “activity change, negative = growth inhibition” value read?
Answer: inactive: 5.8%

Question: Which “activity change, negative = growth inhibition” value does the source give for `CC1(OC(=O)C2CCCC2)C(=O)C=C2C=C(c3ccsc3)N(CCCCO)C=C2C1=O` (configuration not stated) here?
Answer: inactive: -16.3%

Question: Which Potency does the source give for `NC(=O)CC(NC(=O)Cc1ccc(Br)cc1)c1ccc(N2CCc3ccccc3C2)c([N+](=O)[O-])c1` (configuration not stated) here?
Answer: inconclusive: 20.6 µM [inhibitor, single point]

Question: For `COc1ccc(C2C=C(c3ccccc3)Nc3nc(NS(=O)(=O)c4ccc(Cl)cc4)nn32)cc1` (configuration not stated), which Potency is on record?
Answer: inconclusive: 25.9 µM [inhibitor, single point]

Question: For `CCc1ccc(/C=C2/Sc3ccccc3N(CC(=O)NCC3CCCO3)C2=O)cc1` (configuration not stated), which Potency is on record?
Answer: inconclusive: 18.4 µM [inhibitor, single point]

Question: With `NC(=NCc1ccccc1)C(N=Nc1ccccc1)C(=O)NCc1ccccc1` (configuration not stated) as the molecule, how does the Potency read?
Answer: inconclusive: 29.1 µM [inhibitor, single point]

Question: With `Cc1ccc(C)c(SCC(=O)NCC(c2ccco2)N2CCCCC2)c1` (configuration not stated) as the molecule, how does the Potency read?
Answer: inconclusive: 16.4 µM [inhibitor, single point]

Question: Which Potency does the source give for `CC(C)(C)C1CCC(C(=O)Nc2ccc(N3CCOCC3)cc2N2CCOCC2)CC1` (configuration not stated) here?
Answer: inconclusive: 29.1 µM [inhibitor, single point]

Question: Which Potency does the source give for `Cn1c(NCc2ccccc2F)nc2cc(-c3cccc(C(F)(F)F)c3)sc2c1=O` here?
Answer: active: 13 µM

Question: With `COc1ccc(OC)c(-n2c(C)ccc2-c2ccc(S(C)(=O)=O)cc2)c1` as the molecule, how does the Potency read?
Answer: active: 18.4 µM

Question: Which Potency does the source give for `CCC(c1nnnn1-c1c(C)cccc1C)N1CCCN(Cc2ccc(F)cc2)CC1` (configuration not stated) here?
Answer: inconclusive: 29.1 µM [inhibitor, single point]

Question: Which Potency does the source give for `Cc1cccc2c1N(CCOc1ccc(C(C)(C)C)cc1)C(=O)C2=O` here?
Answer: active: 2.91 µM

Question: For `COc1ccc(OC)c(/C=C/c2nc3ccccc3nc2C)c1`, which Potency is on record?
Answer: inconclusive: 20 µM [inhibitor, single point]

Question: With `CC1(C)CC(=O)C2=C(C1)OC(N)=C(C#N)C2Cc1ccccc1` (configuration not stated) as the molecule, how does the “activity change, negative = growth inhibition” value read?
Answer: inactive: -3.95%

Question: Which Potency does the source give for `Cc1ccccc1Cn1c(CN2CCCC(C)C2)nc2c1c(=O)n(C)c(=O)n2C` (configuration not stated) here?
Answer: active: 8.2 µM

Question: With `O=C(Nc1ccc2c(c1)OCCO2)C(C1CC1)N1CCN(C/C=C/c2ccccc2)CC1` (configuration not stated) as the molecule, how does the Potency read?
Answer: inconclusive: 29.1 µM [inhibitor, single point]

Question: Which Potency does the source give for `Cn1c(=O)cc(OCC(=O)NCCCN2CCN(c3ccccc3F)CC2)c2ccccc21` here?
Answer: inconclusive: 29.1 µM [inhibitor, single point]

Question: With `COc1ccc(N(C(=O)c2ccco2)C(C(=O)NC2CCCC2)c2ccc(N3CCOCC3)cc2)c(OC)c1` (configuration not stated) as the molecule, how does the Potency read?
Answer: inconclusive: 23.1 µM [inhibitor, partial curve, poor fit]

Question: With `Cc1ccc(C)c(N2CCN(C(=O)c3noc4c3CCCCC4)CC2)c1` as the molecule, how does the Potency read?
Answer: inconclusive: 23.1 µM [inhibitor, single point]

Question: Which “activity change, negative = growth inhibition” value does the source give for `COc1cc(Nc2nnc(C)s2)c(Cl)cc1Cl` here?
Answer: inactive: -14.1%

Question: Which Potency does the source give for `CCOc1cccc2c1OC(c1cc(OC)c(OC)c(OC)c1)N1N=C(c3ccc(C)o3)CC21` (configuration not stated) here?
Answer: inconclusive: 25.9 µM [inhibitor, single point]

Question: For `CCCC(=O)N1CCN(c2nc3ccc(Cl)cc3s2)CC1`, which Potency is on record?
Answer: inconclusive: 29.1 µM [inhibitor, single point]

Question: Which Potency does the source give for `CC1CSC(N(C(=O)c2ccc(S(C)(=O)=O)cc2)c2ccc(Cl)cc2)=N1` (configuration not stated) here?
Answer: inconclusive: 29.1 µM [inhibitor, single point]

Question: With `CCOc1ccc(C(=O)c2cn(CC(=O)Nc3ccc(Cl)cc3)c3cc4c(cc3c2=O)OCCO4)cc1` as the molecule, how does the Potency read?
Answer: inconclusive: 3.66 µM [inhibitor, full curve]

Question: Which Potency does the source give for `Cc1ccc2nc(C)cc(Nc3ccc([N+](=O)[O-])cc3)c2c1` here?
Answer: active: 1.03 µM

Question: For `O=C(COC(=O)/C=C/c1ccccc1)NC(=O)NC1CCCCC1`, which “activity change, negative = growth inhibition” value is on record?
Answer: inactive: -9.06%

Question: For `Cc1ccc2nc(-c3ccccc3)cn2c1`, which Potency is on record?
Answer: inconclusive: 16.4 µM [inhibitor, single point]

Question: Which Potency does the source give for `Cc1cc(N/N=C/c2ccc3c(c2)OCO3)nc2ccccc12` here?
Answer: inconclusive: 25.9 µM [inhibitor, single point]

Question: With `COc1ccc(C(=O)C2CCCN(C(=O)c3cccnc3SC)C2)c(C)c1` (configuration not stated) as the molecule, how does the Potency read?
Answer: inconclusive: 18.4 µM [inhibitor, partial curve]

Question: For `CCOC(=O)c1sc(NC(=O)CSc2nnc(C(C)C)n2CC)nc1C`, which Potency is on record?
Answer: inconclusive: 18.4 µM [inhibitor, partial curve]

Question: For `O=C(c1ccc(Cl)cc1)C1CCCN(Cc2cccn2-c2ccccn2)C1` (configuration not stated), which Potency is on record?
Answer: active: 9.2 µM

Question: Which “activity change, negative = growth inhibition” value does the source give for `COc1ccc([C@H]2N[C@]3(CCCN(Cc4ccccc4)C3=O)[C@H]3C(=O)N(C)C(=O)[C@@H]23)cc1` here?
Answer: inactive: -13.9%

Question: Which Potency does the source give for `COc1ccc(NC(=O)C[C@H]2C(=O)N(c3ccc(Br)cc3)C[C@@H]2C)cc1` here?
Answer: inconclusive: 29.1 µM [inhibitor, single point]

Question: For `O=C(CC1C(=O)NCCN1Cc1ccoc1)NCCc1ccc(Cl)cc1` (configuration not stated), which Potency is on record?
Answer: inconclusive: 1.16 µM [inhibitor, single point]

Question: With `Cc1cccc(CC(=O)N2CC(=O)Nc3ccc(F)cc3C2c2ccccc2)c1` (configuration not stated) as the molecule, how does the Potency read?
Answer: inconclusive: 20.6 µM [inhibitor, single point]

Question: With `NC(N)=NC(N)=Nc1cccc(Cl)c1` as the molecule, how does the Potency read?
Answer: inconclusive: 15 µM [inhibitor, partial curve, poor fit] and inconclusive: 18.4 µM [inhibitor, single point]

Question: For `CC(=O)c1cn(-c2ccc(Cl)cc2)c(=O)n(Cc2ccc(F)cc2)c1=O`, which Potency is on record?
Answer: inconclusive: 29.1 µM [inhibitor, single point]

Question: Which Potency does the source give for `O=[N+]([O-])c1cccc(S(=O)(=O)c2ccc(NCCO)c([N+](=O)[O-])c2)c1` here?
Answer: inconclusive: 18.4 µM [inhibitor, single point]

Question: With `O=C(C1CCN(S(=O)(=O)c2cccc3cccnc23)CC1)N1CCn2c1nc1ccccc12` as the molecule, how does the Potency read?
Answer: inconclusive: 29.1 µM [inhibitor, single point]

Question: With `CCC(CC)C(=O)N1CCc2cc(OC)c(OC)cc2C1COc1ccc(F)cc1` (configuration not stated) as the molecule, how does the Potency read?
Answer: inconclusive: 29.1 µM [inhibitor, single point]

Question: Which Potency does the source give for `O=C(CNC(=O)c1cccc(Br)c1)N/N=C/c1cc(Br)cc(Br)c1O` here?
Answer: inconclusive: 18.4 µM [inhibitor, single point]

Question: Which “activity change, negative = growth inhibition” value does the source give for `COc1ccccc1C(=O)Nc1cccc2nc(C)ccc12` here?
Answer: inactive: 14%

Question: For `CC1(C)CC(CCN(Cc2ccccc2)C(=O)c2ccco2)(c2ccccc2)CCO1` (configuration not stated), which Potency is on record?
Answer: inconclusive: 32.6 µM [inhibitor, single point]

Question: Which Potency does the source give for `CN(C(=O)c1ccc(OC2CCN(Cc3ccccn3)CC2)cc1)C1CCCCC1` here?
Answer: inconclusive: 16.4 µM [inhibitor, single point]

Question: For `CC(NC(=O)C1c2ccccc2Oc2ccccc21)C1CCCO1` (configuration not stated), which “activity change, negative = growth inhibition” value is on record?
Answer: inactive: 2.47%

Question: For `CCCCn1c(=O)[nH]c(=O)c2c1nc(-c1cc(Br)c(OCC)c(OC)c1)n2C`, which Potency is on record?
Answer: inconclusive: 29.1 µM [inhibitor, single point]

Question: Which Potency does the source give for `CCc1ccccc1NC(=O)Nc1ccc2snnc2c1` here?
Answer: active: 18.4 µM

Question: With `CCN(CC(=O)NCc1ccc(Cl)cc1)C(=O)c1c(C)noc1C` as the molecule, how does the “activity change, negative = growth inhibition” value read?
Answer: inactive: -1.41%
